Assay results published in patent US20140315876A1, “BETA-LACTAMASE INHIBITORS” (priority 2013, published 2014).
Counter-ions that a name gives are not always drawn. For at least one compound, name, drawing or mass did not settle the structure. Some of these results come from one statement about several compounds together.

Target: KPC-2 β-lactamase (Klebsiella pneumoniae, UniProt Q9F663)
Assay: not given
Assay type: biochemical, K. pneumoniae
Settings: KPC-2, 100 μM nitrocefin, PBS pH 7.4, 25° C. (Table IV)

KPC-2 β-lactamase, sequence (Q9F663 25-293 limits assumed): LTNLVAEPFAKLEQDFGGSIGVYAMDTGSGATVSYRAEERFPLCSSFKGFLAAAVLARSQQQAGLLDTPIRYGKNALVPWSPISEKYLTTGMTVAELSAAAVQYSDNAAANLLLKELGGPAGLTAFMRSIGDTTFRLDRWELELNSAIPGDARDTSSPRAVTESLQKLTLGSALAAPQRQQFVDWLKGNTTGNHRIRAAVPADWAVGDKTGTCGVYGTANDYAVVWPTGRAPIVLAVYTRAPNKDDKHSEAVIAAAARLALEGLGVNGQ

Compound | binding affinity (kinact/K) for the β-lactamase enzyme [mM⁻¹ s⁻¹]
O=C1N2C[C@@H](CC[C@H]2c2nnc([C@@H]3CNCCN3)o2)N1OS(=O)(=O)O [Compound 778, (2S,5R)-7-oxo-2-(5-((S)-piperazin-2-yl)-1,3,4-oxadiazol-2-yl)-1,6-diazabicyclo[3.2.1]octan-6-yl hydrogen sulfate] | 1 to 99
O=C1N2C[C@@H](CC[C@H]2c2nnc([C@H]3CNCCN3)o2)N1OS(=O)(=O)O [Compound 779, (2S,5R)-7-oxo-2-(5-((R)-piperazin-2-yl)-1,3,4-oxadiazol-2-yl)-1,6-diazabicyclo[3.2.1]octan-6-yl hydrogen sulfate] | 100 to 999
C[n+]1ccc(-c2nnc([C@@H]3CC[C@@H]4CN3C(=O)N4OS(=O)(=O)[O-])s2)cc1 [Compound 786, (2S,5R)-2-(5-(1-methylpyridin-1-ium-4-yl)-1,3,4-thiadiazol-2-yl)-7-oxo-1,6-diazabicyclo[3.2.1]octan-6-yl sulfate] | 1 to 99
O=C1N2C[C@@H](CC[C@H]2c2nnc(CCCN3CCNCC3)o2)N1OS(=O)(=O)O [Compound 792, (2S,5R)-7-oxo-2-(5-(3-(piperazin-1-yl)propyl)-1,3,4-oxadiazol-2-yl)-1,6-diazabicyclo[3.2.1]octan-6-yl hydrogen sulfate] | 1 to 99
N=C(N)NCCc1nnc([C@@H]2CC[C@@H]3CN2C(=O)N3OS(=O)(=O)O)s1 [Compound 794, (2S,5R)-2-(5-(2-guanidinoethyl)-1,3,4-thiadiazol-2-yl)-7-oxo-1,6-diazabicyclo[3.2.1]octan-6-yl hydrogen sulfate] | 100 to 999
C[N+]1(C)CCC(c2nnc([C@@H]3CC[C@@H]4CN3C(=O)N4OS(=O)(=O)O)s2)CC1 [Compound 796, (2S,5R)-2-(5-(1,1-dimethylpiperidin-1-ium-4-yl)-1,3,4-thiadiazol-2-yl)-7-oxo-1,6-diazabicyclo[3.2.1]octan-6-yl sulfate] | 1 to 99
O=C1N2C[C@@H](CC[C@H]2c2nnc(N3CCNCC3)s2)N1OS(=O)(=O)O [Compound 797, (2S,5R)-7-oxo-2-(5-(piperazin-1-yl)-1,3,4-thiadiazol-2-yl)-1,6-diazabicyclo[3.2.1]octan-6-yl hydrogen sulfate] | 1 to 99
O=C1N2C[C@@H](CC[C@H]2c2nnc(-c3ccncc3)s2)N1OS(=O)(=O)O [Compound 798, (2S,5R)-7-oxo-2-(5-(pyridin-4-yl)-1,3,4-thiadiazol-2-yl)-1,6-diazabicyclo[3.2.1]octan-6-yl hydrogen sulfate] | 100 to 999

System: bacterial strains that express KPC β-lactamases
Assay: Synergy MIC / standard BLI potentiation MIC assay, strains expressing KPC β-lactamases
Assay type: cell-based
Settings: more active for at least one KPC strain and/or better spectrum of activity than Avibactam; in the presence of a β-lactam
Protocol: The experimental protocol was performed according to Clinical and Laboratory Standards Institute (CLSI) guidelines with modifications as described below (CLSI guidelines can be derived from the CLSI document M07-A9 published in January 2012: “Methods for Dilution Antimicrobial Susceptibility Tests for Bacteria That Grow Aerobically; Approved Standard-Ninth Edition”).
To prepare for MIC testing, frozen glycerol stocks of clinical isolates (Klebsiella pneumoniae, Eschericia coli, Enterobacter spp, Citrobacter spp, or Pseudomonas aeruginosa) were used to streak for isolated colonies on rich, non-selective, tryptic soy agar containing 5% sheep's blood (TSAB). Frozen glycerol stocks of laboratory engineered, isogenic E. coli strains, which contain cloned β-lactamase expressing plasmids were used to streak for isolated colonies on rich, selective LB agar supplemented with 25 μg/mL tetracycline to maintain the plasmid. All strains were incubated at 37° C. for 18-24 hrs. […]
Plates were incubated for 18-20 hours at 37° C. with aeration (200 rpm). Following incubation, growth was confirmed visually placing plates over a viewing apparatus (stand with a mirror underneath) and then OD600 was measured using a SpectraMax 340PC384 plate reader (Molecular Devices, Sunnyvale, Calif.). Growth was defined as turbidity that could be detected with the naked eye or achieving minimum OD600 of 0.1. […]

Compound | activity and/or spectrum of activity against bacterial strains that express KPC β-lactamases, compared with Avibactam
C[n+]1ccc(-c2nnc([C@@H]3CC[C@@H]4CN3C(=O)N4OS(=O)(=O)[O-])s2)cc1 [Compound 786, (2S,5R)-2-(5-(1-methylpyridin-1-ium-4-yl)-1,3,4-thiadiazol-2-yl)-7-oxo-1,6-diazabicyclo[3.2.1]octan-6-yl sulfate] | more active than Avibactam
